The list shows a part of the results. Interaction screen of human proteins with wild-type SARS-CoV-2 proteins by split-DHFR complementation in yeast, 1 µg/mL methotrexate. Value = fitness of the pair (three or more lineages) minus that of the viral protein without a human partner, on a scale set by negative (0) and fused positive (1) controls, mean of up to three cultures; higher = more likely to interact. Active = false discovery rate below 0.05 (one-sided t-test) in at least one culture. Nearly all pairs are not hits, and differences among them are mostly noise (correlation between cultures about 0.3); most hits were seen in one culture only. Human sequences are the Swiss-Prot entries looked up by gene name; the clone may be another isoform. NSP2 values were corrected by the authors for a growth advantage. Listed are human proteins with a hit and a random twelfth of the others.
B1: HHIPL2, Q6UWX4 (protein)
chain: MLRTSTPNLCGGLHCRAPWLSSGILCLCLIFLLGQVGLLQGHPQCLDYGPPFQPPLHLEFCSDYESFGCCDQHKDRRIAARYWDIMEYFDLKRHELCGDYIKDILCQECSPYAAHLYDAENTQTPLRNLPGLCSDYCSAFHSNCHSAISLLTNDRGLQESHGRDGTRFCHLLDLPDKDYCFPNVLRNDYLNRHLGMVAQDPQGCLQLCLSEVANGLRNPVSMVHAGDGTHRFFVAEQVGVVWVYLPDGSRLEQPFLDLKNIVLTTPWIGDERGFLGLAFHPKFRHNRKFYIYYSCLDKKKVEKIRISEMKVSRADPNKADLKSERVILEIEEPASNHNGGQLLFGLDGYMYIFTGDGGQAGDPFGLFGNAQNKSSLLGKVLRIDVNRAGSHGKRYRVPSDNPFVSEPGAHPAIYAYGIRNMWRCAVDRGDPITRQGRGRIFCGDVGQNRFEEVDLILKGGNYGWRAKEGFACYDKKLCHNASLDDVLPIYAYGHAVGKSVTGGYVYRGCESPNLNGLYIFGDFMSGRLMALQEDRKNKKWKKQDLCLGSTTSCAFPGLISTHSKFIISFAEDEAGELYFLATSYPSAYAPRGSIYKFVDPSRRAPPGKCKYKPVPVRTKSKRIPFRPLAKTVLDLLKEQSEKAARKSSSATLASGPAQGLSEKGSSKKLASPTSSKNTLRGPGTKKKARVGPHVRQGKRRKSLKSHSGRMRPSAEQKRAGRSLP
B2: IKZF1, Q13422 (protein)
chain: MDADEGQDMSQVSGKESPPVSDTPDEGDEPMPIPEDLSTTSGGQQSSKSDRVVASNVKVETQSDEENGRACEMNGEECAEDLRMLDASGEKMNGSHRDQGSSALSGVGGIRLPNGKLKCDICGIICIGPNVLMVHKRSHTGERPFQCNQCGASFTQKGNLLRHIKLHSGEKPFKCHLCNYACRRRDALTGHLRTHSVGKPHKCGYCGRSYKQRSSLEEHKERCHNYLESMGLPGTLYPVIKEETNHSEMAEDLCKIGSERSLVLDRLASNVAKRKSSMPQKFLGDKGLSDTPYDSSASYEKENEMMKSHVMDQAINNAINYLGAESLRPLVQTPPGGSEVVPVISPMYQLHKPLAEGTPRSNHSAQDSAVENLLLLSKAKLVPSEREASPSNSCQDSTDTESNNEEQRSGLIYLTNHIAPHARNGLSLKEEHRAYDLLRAASENSQDALRVVSTSGEQMKVYKCEHCRVLFLDHVMYTIHMGCHGFRDPFECNMCGYHSQDRYEFSSHITRGEHRFHMS
B3: IKZF3, Q9UKT9 (protein)
chain: MEDIQTNAELKSTQEQSVPAESAAVLNDYSLTKSHEMENVDSGEGPANEDEDIGDDSMKVKDEYSERDENVLKSEPMGNAEEPEIPYSYSREYNEYENIKLERHVVSFDSSRPTSGKMNCDVCGLSCISFNVLMVHKRSHTGERPFQCNQCGASFTQKGNLLRHIKLHTGEKPFKCHLCNYACQRRDALTGHLRTHSVEKPYKCEFCGRSYKQRSSLEEHKERCRTFLQSTDPGDTASAEARHIKAEMGSERALVLDRLASNVAKRKSSMPQKFIGEKRHCFDVNYNSSYMYEKESELIQTRMMDQAINNAISYLGAEALRPLVQTPPAPTSEMVPVISSMYPIALTRAEMSNGAPQELEKKSIHLPEKSVPSERGLSPNNSGHDSTDTDSNHEERQNHIYQQNHMVLSRARNGMPLLKEVPRSYELLKPPPICPRDSVKVINKEGEVMDVYRCDHCRVLFLDYVMFTIHMGCHGFRDPFECNMCGYRSHDRYEFSSHIARGEHRALLK

Target: SARS-CoV-2 E
Experiment: yeast fitness gain over the viral ORF with no human partner (scaled fitness); higher = more likely to interact
Method: (§1)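 Split mouse DHFR complementation in pooled diploid yeast: human ORFeome clones carry one fragment and viral ORFs the other; barcoded lineages compete in 1 µg/mL methotrexate and fitness is read by barcode sequencing in up to three cultures.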

Binder | yeast fitness gain
B1 | inactive: -0.0991
B2 | inactive: -0.0687
B3 | inactive: -0.0405

Target: SARS-CoV-2 M
Experiment: as above
Method: as §1

Binder | yeast fitness gain
B1 | inactive: -0.00596
B3 | inactive: 0.0392

Target: SARS-CoV-2 N
Experiment: as above
Method: as §1

Binder | yeast fitness gain
B1 | inactive: -0.078
B3 | inactive: 0.0842

Target: SARS-CoV-2 NSP1
Experiment: as above
Method: as §1

Binder | yeast fitness gain
B1 | inactive: -0.0273
B3 | inactive: -0.117

Target: SARS-CoV-2 NSP10
Experiment: as above
Method: as §1

Binder | yeast fitness gain
B1 | inactive: -0.0329
B2 | inactive: -0.211
B3 | inactive: 0.00147

Target: SARS-CoV-2 NSP12
Experiment: as above
Method: as §1

Binder | yeast fitness gain
B1 | inactive: -0.0347
B2 | inactive: -0.0885
B3 | inactive: 0.0752

Target: SARS-CoV-2 NSP13
Experiment: as above
Method: as §1

Binder | yeast fitness gain
B1 | inactive: -0.0666
B2 | inactive: 0.00093
B3 | inactive: -0.0081

Target: SARS-CoV-2 NSP15
Experiment: as above
Method: as §1

Binder | yeast fitness gain
B1 | inactive: -0.0231
B3 | inactive: 0.023

Target: SARS-CoV-2 NSP16
Experiment: as above
Method: as §1

Binder | yeast fitness gain
B1 | inactive: 0.0312
B3 | inactive: -0.000152

Target: SARS-CoV-2 NSP2
Experiment: as above
Method: as §1

Binder | yeast fitness gain
B1 | inactive: -0.286
B2 | inactive: -0.14
B3 | inactive: -0.105

Target: SARS-CoV-2 NSP5
Experiment: as above
Method: as §1

Binder | yeast fitness gain
B1 | inactive: -0.017
B3 | inactive: -0.0298

Target: SARS-CoV-2 NSP6
Experiment: as above
Method: as §1

Binder | yeast fitness gain
B1 | inactive: 0.0483
B2 | inactive: 0.0172
B3 | inactive: -0.0512

Target: SARS-CoV-2 NSP8
Experiment: as above
Method: as §1

Binder | yeast fitness gain
B1 | inactive: -0.0382
B2 | inactive: 0.0134
B3 | inactive: -0.0346

Target: SARS-CoV-2 NSP9
Experiment: as above
Method: as §1

Binder | yeast fitness gain
B1 | inactive: -0.0827
B3 | inactive: 0.03

Target: SARS-CoV-2 ORF10
Experiment: as above
Method: as §1

Binder | yeast fitness gain
B1 | inactive: -0.104
B3 | inactive: -0.00173

Target: SARS-CoV-2 ORF3A
Experiment: as above
Method: as §1

Binder | yeast fitness gain
B1 | inactive: 0.12
B3 | inactive: 0.0729

Target: SARS-CoV-2 ORF3B
Experiment: as above
Method: as §1

Binder | yeast fitness gain
B1 | inactive: -0.033
B2 | inactive: 0.0278
B3 | inactive: -0.00537

Target: SARS-CoV-2 ORF6
Experiment: as above
Method: as §1

Binder | yeast fitness gain
B1 | inactive: -0.016
B3 | inactive: -0.0174

Target: SARS-CoV-2 ORF7A
Experiment: as above
Method: as §1

Binder | yeast fitness gain
B1 | inactive: -0.0817
B3 | inactive: 0.031

Target: SARS-CoV-2 ORF7B
Experiment: as above
Method: as §1

Binder | yeast fitness gain
B1 | inactive: -0.153
B2 | inactive: -0.264
B3 | inactive: -0.0366

Target: SARS-CoV-2 ORF8
Experiment: as above
Method: as §1

Binder | yeast fitness gain
B1 | inactive: -0.0404
B2 | inactive: -0.156
B3 | inactive: -0.00483

Target: SARS-CoV-2 ORF9B
Experiment: as above
Method: as §1

Binder | yeast fitness gain
B1 | inactive: -0.102
B2 | inactive: 0.0147
B3 | inactive: -0.0154

Target: SARS-CoV-2 ORF9Bwu (the 73-codon ORF)
Experiment: as above
Method: as §1

Binder | yeast fitness gain
B1 | inactive: -0.0331
B3 | inactive: 0.0114

Target: SARS-CoV-2 S
Experiment: as above
Method: as §1

Binder | yeast fitness gain
B1 | inactive: 0.0609
B3 | inactive: 0.0331

Target: SARS-CoV-2 NSP7
Experiment: as above
Method: as §1

Binder | yeast fitness gain
B2 | inactive: -0.0354
B3 | inactive: -0.0244

Target: SARS-CoV-2 NSP14
Experiment: as above
Method: as §1

Binder | yeast fitness gain
B3 | inactive: 0.0187

Target: SARS-CoV-2 NSP4
Experiment: as above
Method: as §1

Binder | yeast fitness gain
B3 | inactive: 0.135

From the supplement of paper PMC11741623
